Assay results as given in PubChem BioAssay AID1259407 (Chemical Carcinogenesis Research Information System (CCRIS), 2018).
Entries after “also recorded” stand apart in the source; their conditions may differ. For part of its entries the source gives two or more results. This list holds those alone. No rule for the calls is given here. There may be further records. Results that share an entry do not match, cause unknown; dose, time, organism, isomer or construct need not be as stated for each record. A tag in brackets gives the origin of a value. Letters count within one entry. Marks such as (2×) count equal records among those shown.

Tested on: CCRIS mutagenicity, Ames/micronucleus/aberration tests
Test: CCRIS mutagenicity studies
[1] = Test System: AMES SALMONELLA TYPHIMURIUM, Strain/Indicator: TA98, Metabolic Activation: HAMSTER, LIVER, S-9, AROCLOR 1254, Method: STANDARD PLATE
[2] = Test System: AMES SALMONELLA TYPHIMURIUM, Strain/Indicator: TA98, Metabolic Activation: RAT, LIVER, S-9, AROCLOR 1254, Method: STANDARD PLATE
[3] = Test System: AMES SALMONELLA TYPHIMURIUM, Strain/Indicator: TA100, Metabolic Activation: MOUSE, LIVER, S-9, AROCLOR 1254, Method: STANDARD PLATE
[4] = Test System: AMES SALMONELLA TYPHIMURIUM, Strain/Indicator: TA100, Metabolic Activation: NONE, Method: STANDARD PLATE
[5] = Test System: AMES SALMONELLA TYPHIMURIUM, Strain/Indicator: TA1537, Metabolic Activation: HAMSTER, LIVER, S-9, Method: STANDARD PLATE
[6] = Test System: AMES SALMONELLA TYPHIMURIUM, Strain/Indicator: TA1538, Metabolic Activation: HAMSTER, LIVER, S-9, AROCLOR 1254, Method: STANDARD PLATE
[7] = Test System: AMES SALMONELLA TYPHIMURIUM, Strain/Indicator: TA1538, Metabolic Activation: HAMSTER, LIVER, S-9, Method: STANDARD PLATE
[8] = Test System: AMES SALMONELLA TYPHIMURIUM, Strain/Indicator: TA1538, Metabolic Activation: RAT, LIVER, S-9, AROCLOR 1254, Method: STANDARD PLATE
[9] = Test System: MOUSE LYMPHOMA, Strain/Indicator: L5178Y (TK+/TK-), Metabolic Activation: NONE, Method: SUSPENSION/PLATE
[10] = Test System: MOUSE LYMPHOMA, Strain/Indicator: L5178Y (TK+/TK-), Metabolic Activation: RAT, LIVER, S-9, AROCLOR 1254, Method: SUSPENSION/PLATE

Nc1cccc2c(N)cccc12
mutagenic call [1]: inactive; negative [0.3 to 333.3 µg/plate] and active; positive [1 to 3333.3 µg/plate] | mutagenic call (Test System: AMES SALMONELLA TYPHIMURIUM, Strain/Indicator: TA98, Metabolic Activation: HAMSTER, LIVER, S-9, Method: STANDARD PLATE): inactive; negative [0.3 to 333.3 µg/plate] and active; positive [1 to 3333.3 µg/plate] | mutagenic call (Test System: AMES SALMONELLA TYPHIMURIUM, Strain/Indicator: TA98, Metabolic Activation: MOUSE, LIVER, S-9, AROCLOR 1254, Method: STANDARD PLATE): inactive; negative [0.3 to 333.3 µg/plate] and active; positive [1 to 3333.3 µg/plate] | mutagenic call (Test System: AMES SALMONELLA TYPHIMURIUM, Strain/Indicator: TA98, Metabolic Activation: MOUSE, LIVER, S-9, Method: STANDARD PLATE): inactive; negative [0.3 to 333.3 µg/plate] and inactive; negative [1 to 3333.3 µg/plate] and active; positive [3.3 to 3333.3 µg/plate] | mutagenic call [2]: inactive; negative [0.3 to 333.3 µg/plate] and active; positive [1 to 3333.3 µg/plate] | mutagenic call (Test System: AMES SALMONELLA TYPHIMURIUM, Strain/Indicator: TA100, Metabolic Activation: HAMSTER, LIVER, S-9, AROCLOR 1254, Method: STANDARD PLATE): inactive; negative [0.3 to 333.3 µg/plate] and active; positive [1 to 3333.3 µg/plate] and inactive; negative [3.3 to 3333.3 µg/plate] | mutagenic call (Test System: AMES SALMONELLA TYPHIMURIUM, Strain/Indicator: TA100, Metabolic Activation: HAMSTER, LIVER, S-9, Method: STANDARD PLATE): inactive; negative [0.3 to 333.3 µg/plate] and active; positive [1 to 3333.3 µg/plate] | mutagenic call [3]: inactive; negative [0.3 to 333.3 µg/plate] and active; positive [1 to 3333.3 µg/plate] and inactive; negative [3.3 to 3333.3 µg/plate] | mutagenic call (Test System: AMES SALMONELLA TYPHIMURIUM, Strain/Indicator: TA100, Metabolic Activation: MOUSE, LIVER, S-9, Method: STANDARD PLATE): active; positive [1 to 1000 µg/plate] and inactive; negative [3.3 to 3333.3 µg/plate] | mutagenic call [4]: inactive; negative [0.3 to 333.3 µg/plate] and active; positive [1 to 1000 µg/plate] and inactive; negative [3.3 to 3333.3 µg/plate] | mutagenic call (Test System: AMES SALMONELLA TYPHIMURIUM, Strain/Indicator: TA100, Metabolic Activation: RAT, LIVER, S-9, AROCLOR 1254, Method: STANDARD PLATE): inactive; negative [0.3 to 333.3 µg/plate] and active; positive [1 to 3333.3 µg/plate] | mutagenic call (Test System: AMES SALMONELLA TYPHIMURIUM, Strain/Indicator: TA100, Metabolic Activation: RAT, LIVER, S-9, Method: STANDARD PLATE): inactive; negative [0.3 to 333.3 µg/plate] and active; positive [1 to 3333.3 µg/plate] | mutagenic call [5]: inactive; negative [0.3 to 333.3 µg/plate] and active; positive [1 to 1000 µg/plate] and inactive; negative [3.3 to 3333.3 µg/plate] | mutagenic call (Test System: AMES SALMONELLA TYPHIMURIUM, Strain/Indicator: TA1537, Metabolic Activation: MOUSE, LIVER, S-9, AROCLOR 1254, Method: STANDARD PLATE): inactive; negative [0.3 to 333.3 µg/plate] and active; positive [3.3 to 3333.3 µg/plate] | mutagenic call (Test System: AMES SALMONELLA TYPHIMURIUM, Strain/Indicator: TA1537, Metabolic Activation: NONE, Method: STANDARD PLATE): inactive; negative [0.3 to 333.3 µg/plate] and inactive; negative [1 to 1000 µg/plate] and active; positive [3.3 to 3333.3 µg/plate] | mutagenic call (Test System: AMES SALMONELLA TYPHIMURIUM, Strain/Indicator: TA1537, Metabolic Activation: RAT, LIVER, S-9, AROCLOR 1254, Method: STANDARD PLATE): inactive; negative [0.3 to 333.3 µg/plate] and active; positive [1 to 3333.3 µg/plate] | mutagenic call [6]: inactive; negative [0.3 to 333.3 µg/plate] and active; positive [1 to 3333.3 µg/plate] | mutagenic call [7]: inactive; negative [0.3 to 333.3 µg/plate] and active; positive [1 to 3333.3 µg/plate] and inactive; negative [3.3 to 3333.3 µg/plate] | mutagenic call [8]: inactive; negative [0.3 to 333.3 µg/plate] and inactive; negative [3.3 to 3333.3 µg/plate] and active; positive [3.3 to 3333.3 µg/plate]

ClC(Cl)Cl
mutagenic call (Test System: AMES SALMONELLA TYPHIMURIUM, Strain/Indicator: TA1535 (GST+), Metabolic Activation: NONE, Method: STANDARD PLATE): active; positive and inactive; negative | mutagenic call (Test System: AMES SALMONELLA TYPHIMURIUM, Strain/Indicator: TA1535, Metabolic Activation: NONE, Method: STANDARD PLATE): inactive; negative [study A] and active; positive [study B]

ClCBr
mutagenic call (End Point: IN VITRO CHROMOSOMAL ABERRATIONS, Test System: CHL CELLS, Metabolic Activation: RAT, LIVER, S-9, SODIUM PHENOBARBITAL AND 5,6-BENZOFLAVONE): inactive; negative [study A] and active; positive (structural changes) [study B]

C=CC(=O)OCCOC(=O)C=C
mutagenic call [9]: active; positive [study A]; also recorded: active; positive. reevaluation of results: equivocal [study B]; also recorded: active; positive. reevaluation of results: equivocal [study C] | mutagenic call [10]: active; positive [study A]; also recorded: active; positive. reevaluation of results: equivocal [study B]

O=C(O)C(Cl)(Cl)Cl
mutagenic call (End Point: IN VITRO CHROMOSOMAL ABERRATIONS, Test System: HUMAN PERIPHERAL LYMPHOCYTES, Metabolic Activation: NONE): active; positive; authors report that chromosomal damage is a result of ph changes induc; also recorded: inactive; negative | mutagenic call (End Point: IN VITRO CHROMOSOMAL ABERRATIONS, Test System: HUMAN PERIPHERAL LYMPHOCYTES, Metabolic Activation: RAT, LIVER, S-9, AROCLOR 1254): active; positive; authors report that chromosomal damage is a result of ph changes induc; also recorded: inactive; negative

C1=C\CC/C=C\CC/1.Nc1ccccc1.[Cl-].[Rh]
mutagenic call (Test System: AMES SALMONELLA TYPHIMURIUM, Strain/Indicator: TA92, Metabolic Activation: NONE, Method: STANDARD PLATE): active; positive and inactive; negative | mutagenic call (Test System: AMES SALMONELLA TYPHIMURIUM, Strain/Indicator: TA98, Metabolic Activation: NONE, Method: STANDARD PLATE): active; positive and inactive; negative | mutagenic call [4]: active; positive and inactive; negative

N[C@@H]1CCCCN1.[Cl][Pt][Cl]
mutagenic call (Test System: AMES SALMONELLA TYPHIMURIUM, Strain/Indicator: TA98, Metabolic Activation: RAT, LIVER, S-9, AROCLOR 1254, Method: PREINCUBATION): active; positive and inactive; negative

CC(=O)Nc1cccc2c1-c1ccccc1C2
mutagenic call [10]: inactive; negative [study A] and active; positive [study B] | mutagenic call (Test System: MOUSE LYMPHOMA, Strain/Indicator: L5178Y (TK+/TK-), Metabolic Activation: RAT, LIVER, S-9, Method: SUSPENSION/PLATE): inactive; negative [study A] and active; positive [study B]

C[Si](C)(Cl)Cl
mutagenic call [9]: inactive; negative [study A]; also recorded: inactive; negative. reealuation of results: negative [study B]

CN(C)c1ccc(C(=O)c2ccc(N(C)C)cc2)cc1
mutagenic call [1]: inactive; negative and active; positive | mutagenic call [2]: active; positive (2×) and inactive; negative | mutagenic call [3]: inactive; negative (2×) and active; positive | mutagenic call [5]: inactive; negative (2×) and active; positive | mutagenic call [6]: active; positive and inactive; negative | mutagenic call [7]: inactive; negative (2×) and active; positive | mutagenic call (Test System: AMES SALMONELLA TYPHIMURIUM, Strain/Indicator: TA1538, Metabolic Activation: MOUSE, LIVER, S-9, AROCLOR 1254, Method: STANDARD PLATE): active; positive and inactive; negative (2×) | mutagenic call [8]: active; positive and inactive; negative (2×)

CN(C)/N=N/c1nc[nH]c1C(N)=O
mutagenic call (Test System: AMES SALMONELLA TYPHIMURIUM, Strain/Indicator: TA98, Metabolic Activation: NONE, Method: PREINCUBATION): inactive; negative [study A] and active; positive [study B] | mutagenic call (Test System: AMES SALMONELLA TYPHIMURIUM, Strain/Indicator: TA100, Metabolic Activation: NONE, Method: PREINCUBATION): inactive; negative [study A] and active; positive [study B]

NCCS
mutagenic call (Test System: E. coli, Strain/Indicator: WP2uvrA/pKM101, Metabolic Activation: None, Method: Preincubation): inactive; negative and active; positive

Nc1cc2nc3ccccc3nc2cc1O
mutagenic call (Test System: AMES SALMONELLA TYPHIMURIUM, Strain/Indicator: YG1024, Metabolic Activation: NONE, Method: PREINCUBATION): active; positive and inactive; negative | mutagenic call (Test System: AMES SALMONELLA TYPHIMURIUM, Strain/Indicator: YG1029, Metabolic Activation: NONE, Method: PREINCUBATION): active; positive and inactive; negative

CN(C)N
mutagenic call (Test System: AMES SALMONELLA TYPHIMURIUM, Strain/Indicator: TA1537, Metabolic Activation: NONE, Method: PREINCUBATION): inactive; negative [study A] and active; positive [study B]
